# Test results reported in PubChem BioAssay (Tox21).
# Where “and” joins values, the source holds several entries; their conditions need not be identical. Equal entries are not always repeated. The shares of active, inactive and inconclusive entries below differ from those in the screen. For part of these data: Potencies beside an inconclusive call are fits to weak or partial responses and may not hold up. Calls of active or inactive are those of the source. Unless noted, calls come from the whole dose curve; as a rule, active = well fitted curve in the direction sought with a large enough effect in the repeat runs; inconclusive = weak or mixed curves; inactive = no such curve, though single readings can be large; an effect the other way counts as inactive or inconclusive.
# Tests used:
# [1] = qHTS assay for small molecule agonists of the p53 signaling pathway (AID 651631; calls by dose curve; note: nearly all actives have a fitted effect of over 15% in size; note: potency is the fitted concentration of half-maximal effect; for activation: % is set by controls: 0 for no effect and ±100 for the full control effect); settings: HCT-116 p53RE-bla reporter, beta-lactamase FRET ratio, 16 h; activation: at 73.3 µM (top of the series) unless noted
# Outline: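 Quantitative high-throughput format: 4,000 p53RE-bla HCT-116 cells/well, 5 h pre-incubation, 16 h compound exposure at 37 °C, 2 h room-temperature substrate step, fluorescence intensity measured.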
# [2] = qHTS assay for small molecule disruptors of the mitochondrial membrane potential (AID 720635); settings: HepG2 mitochondrial membrane potential, Mito-MPS dye ratio; ratio activity, negative = MMP loss: at 83.2 µM (top of the series) unless noted; note: potency is the fitted concentration of half-maximal effect; for ratio activity, negative = MMP loss: % is set by controls: 0 for no effect and ±100 for the full control effect
# Outline: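 HepG2 cells (2,000/well) attached overnight at 37C, then took compound for 1 hr at 37C, 5% CO2. Mito-MPS dye was added for 30 min; fluorescence was read at 490/535 nm (monomers) and 540/590 nm (aggregates).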
# [3] = biological target: Glucocorticoid receptor (Homo sapiens) (UniProt P04150); assay: qHTS assay to identify small molecule antagonists of the glucocorticoid receptor (GR) signaling pathway (AID 720692; active = well fitted inhibition curve with a large enough effect in the signal ratio in the repeat runs, not every such curve was filed as active; inconclusive = weak or mixed curves, or effect the other way; inactive = no such curve, though single readings can be large or run the other way; the % refers to the signal ratio; note: potency is the fitted concentration of half-maximal effect; for activity change, negative = inhibition: % is set by controls: 0 for no effect and ±100 for the full control effect); settings: GR-bla HeLa, beta-lactamase FRET ratio, dexamethasone-stimulated, 18 h; activity change, negative = inhibition: at 58.5 µM (top of the series) unless noted
# UniProt P04150, sequence (P04150 whole entry, looked up): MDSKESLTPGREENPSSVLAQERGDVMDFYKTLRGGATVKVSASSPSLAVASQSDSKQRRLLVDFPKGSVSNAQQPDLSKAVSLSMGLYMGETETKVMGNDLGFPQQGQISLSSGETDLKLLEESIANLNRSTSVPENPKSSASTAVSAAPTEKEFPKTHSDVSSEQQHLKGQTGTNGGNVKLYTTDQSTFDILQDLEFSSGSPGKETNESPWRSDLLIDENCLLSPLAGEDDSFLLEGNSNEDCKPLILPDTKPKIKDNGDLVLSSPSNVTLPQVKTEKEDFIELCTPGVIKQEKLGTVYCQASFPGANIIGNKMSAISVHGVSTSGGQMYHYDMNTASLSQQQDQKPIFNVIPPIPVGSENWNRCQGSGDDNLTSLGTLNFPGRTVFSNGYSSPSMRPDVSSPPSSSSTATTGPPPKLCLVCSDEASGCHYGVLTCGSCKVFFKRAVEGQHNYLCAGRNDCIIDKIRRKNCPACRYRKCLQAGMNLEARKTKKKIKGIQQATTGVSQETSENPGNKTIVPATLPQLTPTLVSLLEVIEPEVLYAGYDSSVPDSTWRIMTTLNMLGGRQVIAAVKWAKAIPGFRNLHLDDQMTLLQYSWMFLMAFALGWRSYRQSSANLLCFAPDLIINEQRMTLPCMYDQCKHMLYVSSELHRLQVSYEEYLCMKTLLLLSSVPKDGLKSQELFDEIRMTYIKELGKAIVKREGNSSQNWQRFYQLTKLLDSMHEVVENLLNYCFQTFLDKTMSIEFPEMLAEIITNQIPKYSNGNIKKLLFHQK
# Outline: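 Dexamethasone (5 nM final) stimulated a stably integrated GRE-beta-lactamase reporter in HeLa cells during 18 h co-incubation with compounds; signal was quantified as fluorescence intensity of B/G FRET substrate after 2 h.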
# [4] = biological target: Glucocorticoid receptor (Homo sapiens) (UniProt P04150); assay: qHTS assay to identify small molecule agonists of the glucocorticoid receptor (GR) signaling pathway (AID 720691; active = well fitted activation curve with a large enough effect in the signal ratio in the repeat runs, not every such curve was filed as active; inconclusive = weak or mixed curves, or effect the other way; inactive = no such curve, though single readings can be large or run the other way; the % refers to the signal ratio; note: % is set by controls: 0 for no effect and ±100 for the full control effect); settings: GR-bla HeLa, beta-lactamase reporter ratio, 18 h; activation: at 62.4 µM (top of the series) unless noted
# Outline: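 Reporter read-out: fluorescence intensity following 2 h room-temperature LiveBLAzer B/G FRET substrate loading. Prior step: GR-bla HeLa cells held 4 h, then treated 18 h at 37 C.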
# [5] = qHTS assay to test for compound auto fluorescence at 460 nm (blue) in HepG2 cell free culture (AID 720685); note: potency is the fitted concentration of half-maximal effect
# Outline: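 Compound (23 nL) or DMSO pinned into cell-free MEM with 10% FBS; blue fluorescence read at 405/460 nm excitation/emission, expressed as auto-fluorescence equivalency to triamterene.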
# [6] = qHTS assay to test for compound auto fluorescence at 460 nm (blue) in HepG2 cells (AID 720687); note: potency is the fitted concentration of half-maximal effect
# Outline: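 Cells (2,000/well in MEM with 10% FBS) attached overnight at 37 C, then were exposed to compound or DMSO for 1 hr at 37 C, 5% CO2. Fluorescence read at Ex/Em 405/460 nm, expressed as triamterene-equivalent signal.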
# Tags give direction and shape of the fitted curve or compound fluorescence and quenching.
smiles,measurement,setting,value
CC(=O)Oc1ccc(C(=C2CCCCC2)c2ccc(OC(C)=O)cc2)cc1,Potency,[1],inactive
same,Potency,[2],inactive
CCO[Si](CCCNC(N)=O)(OCC)OCC,activation,[1],inconclusive: 2.54%
same,"ratio activity, negative = MMP loss",[2],inconclusive: 4.95%
CCCCC[C@H](O)/C=C/[C@H]1[C@H](O)CC(=O)[C@@H]1C/C=C\CCCC(=O)O,Potency,[1],"inconclusive: 21.1 µM [rising, partial curve, poor fit]"
same,Potency,[2],inactive
same,Potency,[3],"inconclusive: 4.77 µM [activator, full curve]"
OCCN1CCN(CCCN2c3ccccc3Sc3ccc(Cl)cc32)CC1,activation,[1],inconclusive: 6.47% [at 34.7 µM]
same,Potency,[2],inconclusive: 3.59 µM [activator]
same,Potency,[3],inactive
CC(C)Cc1ccc(C(C)C(=O)O)cc1 (stereo unspecified),Potency,[1],inactive
same,Potency,[2],"inconclusive: 26.6 µM [inhibitor, single point] and inconclusive: 277 nM [inhibitor, partial curve]"
same,activation,[4],inconclusive: -4.85% [phenotype inactive] [at 79.2 µM]
same,Potency,[3],inactive
CC(C)c1cccc(C(C)C)c1N,Potency,[1],"inconclusive: 61.1 µM [falling, single point]"
same,Potency,[2],inactive
same,Potency,[3],inactive
CCOc1ccc2c(c1)C(C)=CC(C)(C)N2,Potency,[1],"inconclusive: 29.8 µM [activator, single point] and inconclusive: 27.2 µM [activator, single point] and inconclusive: 61.1 µM [activator]"
same,Potency,[2],"inconclusive: 68.2 µM [inhibitor, partial curve, poor fit]"
same,Potency,[5],"inconclusive: 39.8 µM [fluorescent, single point]"
same,Potency,[6],"inconclusive: 39.8 µM [fluorescent, partial curve] and inconclusive: 35.5 µM [fluorescent, single point]"
